From PMC12136788
Some of the results follow.

T1: UNK ZnF1-6 (called full-length) (human, UniProt Q9C0B0 30-357)
T1 sequence: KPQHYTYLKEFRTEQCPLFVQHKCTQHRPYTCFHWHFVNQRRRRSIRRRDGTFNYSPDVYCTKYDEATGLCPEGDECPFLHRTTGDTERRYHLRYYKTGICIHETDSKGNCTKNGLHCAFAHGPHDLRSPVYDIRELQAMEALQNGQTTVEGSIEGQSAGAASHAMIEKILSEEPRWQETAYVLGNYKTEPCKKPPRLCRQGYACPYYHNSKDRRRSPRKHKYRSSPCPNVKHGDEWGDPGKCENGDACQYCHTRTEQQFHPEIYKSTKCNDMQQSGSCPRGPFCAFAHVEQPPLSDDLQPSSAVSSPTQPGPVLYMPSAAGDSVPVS

B1: chr8:18872320:18872424:-|CDS|ENSG00000156011|unk|FALSE|bound_elsewhere (ssRNA)
RNA: GGGAGUUCUACAGUCCGACGAUCGCCAGAAUCAUUUCCGGAACAUUACAGGCUACAAAGGUACUGGACCAAGAUGCUGUUUCUAGUUUUUCAGUUCAGCAGGUGGAAAAAGAGCUGGACACUGCCAGUCGUAAAACACAGAGACAACAGAGGAUUGAGCAUCA
B2: chrX:55006554:55006655:+|CDS|ENSG00000169188|unk|total|mutant (ssRNA)
RNA: GGGAGUUCUACAGUCCGACGAUCAGGGCGCAAGUGGAUGGACAGCUUGCUCAGUAACUUGGGGUGCCAGUCUGCCUCUCAUGCCGGGCCCUUCAUCGACCGCUACCGCUGCUUCCAACCAAAGCAGGAGGGGGCCUUCACCUGCAACAGAGGAUUGAGCAUCA
B3: chr13:75481370:75481471:-|CDS|ENSG00000136111|msi1|total|mutant (ssRNA)
RNA: GGGAGUUCUACAGUCCGACGAUCCUCAGCGCGCCCUUCCUGCGUUGCGUCCCCGCGCCGGGCGCUGGGGCCUCGGGGGGCACCCGUCCGUCGGCCACGCAGCCCAACCCGGCGGUAUUCAUCUUCGAGCACAAGGCGCAGCAUCAACAGAGGAUUGAGCAUCA
B4: ENSG00000124766:be:win_351|CDS|ENSG00000124766|bound_else_gene|NA|bound_elsewhere_windowed (ssRNA)
RNA: GGGAGUUCUACAGUCCGACGAUCCAAGCACAUGGCUGACUACCCCGACUACAAGUACCGGCCCAGGAAGAAGGUGAAGUCCGGCAACGCCAACUCCAGCUCCUCGGCCGCCGCCUCCUCCAAGCCGGGGGAGAAGGGAGACAACAACAGAGGAUUGAGCAUCA
B5: chr10:15076158:15076259:-|3pUTR|ENSG00000176244|unk|total|mutant (ssRNA)
RNA: GGGAGUUCUACAGUCCGACGAUCAGAUCCCUUAAGAUAAAUAUCCCCCAAAACAGUGUACCUCUAUUCCCUGCAUAAAAAUUCCGAUUUGGAAUGGUAUGACCAGAGGAACCGAUCCACUUCAUGUUACUACAACAACAAAACCAACAGAGGAUUGAGCAUCA
B6: chr3:69105919:69106020:+|3pUTR|ENSG00000144746|msi1|FALSE|bound_elsewhere (ssRNA)
RNA: GGGAGUUCUACAGUCCGACGAUCGUGCUGCUUCUGAUUUUUCUUGCAUUUUAAAUUCUCAGCCAACCUACAGCCAUGAUCUUUAGCACAGUGAUAUCACCAUGACUUCACAGACAUGGUCUAGAAUCUGUACCCUUACCCACACAACAGAGGAUUGAGCAUCA
B7: chr17:58301230:58302447:-|three_prime_utr|ENSG00000005379|control|control|control (ssRNA)
RNA: GGGAGUUCUACAGUCCGACGAUCGGGAAUCAAAGAGCCUUGGUGAAGGUCAGAGCUAAAUGGCUCCUUAAGGAUGAACUCUCUAGAGAAGCACCUUCCUCCUACAGGAGGGGAAACUGAGCCCACAGUGAGUAUGUAACUUGACAACAGAGGAUUGAGCAUCA
B8: chr12:108522223:108522324:-|3pUTR|ENSG00000075856|msi1|FALSE|unique (ssRNA)
RNA: GGGAGUUCUACAGUCCGACGAUCUCAGUCGGGUUUUCUAUAUUUUUUUAACUUAACAUUUUUUAAUAUAACCGAUUAAAAAGUAGACAGAACAGUAAAAUAAACUCCUGUGUGCCUACCAUUCAGCUUCCAGCAUUCCUCAACCAACAGAGGAUUGAGCAUCA
B9: chr11:113276125:113276317:+|3pUTR|ENSG00000149294|msi1|total|mutant (ssRNA)
RNA: GGGAGUUCUACAGUCCGACGAUCGUCCGUGUAAAACCGCUGCCUUUUAUUUUUUAAGGUAACAAAUACCACCCCGAGGCCGGCCGGAUCAUCCCACGCUUGCUUCCGCACAGGACAACUUUACAAAACAUGAUUGUUUACAGCCAACAGAGGAUUGAGCAUCA
B10: chr14:53039561:53039662:-|3pUTR|ENSG00000100523|unk|FALSE|unique (ssRNA)
RNA: GGGAGUUCUACAGUCCGACGAUCUCAAACUAUAUUUUUGUUACAGCAAACUACAUUCCAUUUGCCUUUAAAUGCUUGCAUUUUAGUUAUUGUACUGGCUACCUGUUUUUGUCUGCCCAGCAUCCUGUUUCCCCUCCUUUUGGACAACAGAGGAUUGAGCAUCA
B11: chr11:130877263:130877364:-|3pUTR|ENSG00000120451|msi1|FALSE|unique (ssRNA)
RNA: GGGAGUUCUACAGUCCGACGAUCCAGUCCUUUAACAACACCAGCAUGAAGGCAAAGGUGUUUUGUCAGACUGCAACAUCUAUUAGAAAGGCAAGGCAACUGGGAAUUGCUGGAGAAGGAUAAAUCAGGAGGAAUUGCUGGUAGCAACAGAGGAUUGAGCAUCA
B12: chr11:64204363:64204470:+|3pUTR|ENSG00000168439|unk|total|mutant (ssRNA)
RNA: GGGAGUUCUACAGUCCGACGAUCGCCCUCGAGUUCCAUGUCUCUUUCCCCUGCCCCCCGUUGCUGUCUCGGCUGCUCUCCCACCGUUGGUUUUUUUUUUAUUUGGGGCAGUGGGCAUGUUAUGGGGAGGGGAGGGGGUUCUUCCAACAGAGGAUUGAGCAUCA
B13: chr12:54395726:54395827:-|3pUTR|ENSG00000161638|msi1_unk|total|mutant (ssRNA)
RNA: GGGAGUUCUACAGUCCGACGAUCAAGAACACUAACUAUGCAUGGUGCCCCAGGACCAGCUCAGGACAGAUGCCACACAAGGACCGAUGCUGGCCCAGGGCCCAGAGCCCAGCUCCAAGGGGAAUCAGAACUCAAAUGGGGCCACAACAGAGGAUUGAGCAUCA
B14: chr11:85659139:85659240:-|3pUTR|ENSG00000137504|msi1|total|mutant (ssRNA)
RNA: GGGAGUUCUACAGUCCGACGAUCGUCUGAUUCCGUAAAAUUUUAAAGCUAAAUAAUCUGAUGACUCUUGAAAGUUUAAUUGGCCGUAUGACAUUUAUGUUUUUUUCCCCCAGACUCACAGCCAAUACAAAGUUUUGAGACUCCCAACAGAGGAUUGAGCAUCA

Biological target: T1, UNK ZnF1-6 (called full-length)
Assay: nsRBNS (natural sequence RNA bind-n-seq); RBNS binding buffer (assumed for nsRBNS): 25 mM Tris pH 7.5, 150 mM KCl, 3 mM MgCl2, 0.01% Triton X-100, 500 ug/ml BSA, 20 U/ml SUPERase-In, 4 C; UNK is unkempt and MSI1 is Musashi-1; names of the RNAs are library labels; protein concentration not given here; high values mean tight binding

Binder	binding signal [enrichment R]
B1	0.668
B2	0.739
B3	0.607
B4	0.687
B5	0.388
B6	0.502
B7	0.854
B8	0.786
B9	0.91
B10	0.736
B11	1.27
B12	1.32
B13	0.826
B14	0.823
